# Measurements taken from the RNAGym collection of RNA variant scans (doi:10.1093/nar/gkz1192).
# The source gives no read counts; variants with many changes may rest on few reads.
# B1: CPEB3 Ribozyme (parent)
# chain: UAACAGGGGGCCACAGCAGAAGCGUUCACGUCGCAGCCCCUGUCAGAUUCUGGUGAAUCUGCGAAUUCUGCUGUAUAUCUC
# Variants of: B1
# Experiment: self-cleavage, relative activity (ratio to wild type); higher = more cleavage; in vitro, sequencing
# Outline: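 CPEB3 self-cleaving ribozyme mutant libraries were made by rounds of error-prone PCR, barcoded, and transcribed in vitro with T7 RNA polymerase for 5 hours at 37°C. Cleavage occurred during transcription and a 15 min DNase I step before EDTA stop. RNAs were reverse transcribed with template switching and Illumina-sequenced, with DNA sequencing mapping barcodes to variants. Relative activity is the variant's cleaved/total read fraction divided by wild type's (minimum 5 reads), averaged across three batches.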
row,Variant,self-cleavage
1,UAACAGGGGGCCACAGCAGAAGCGUUCAGGUCGCAGCCCCAGUCAGUUUCUGGUGAAUCUGCGGAUUCUGCUGUAUACCUC [C29G U41A A47U A64G U78C],0.05
2,UAACAGGGGGCCACAGCAGAAGCGUUCAGGUCGCAGCUCCUGUCAGAUUCUGGUGAAUCUGCGAAUUCUGCUGUAUACCUC [C29G C38U U78C],0.17
3,UAACAGGGGGCCACAGCAGAAGCGUUCAGGUCACAGCCCCUGACAGAUUCUGGUGAAUCUGCGAAUUCUGCUGUAUAUCUC [C29G G33A U43A],0.36
4,UAACAGGGGGCCACAGCAGAAGCGUUCAUGUCGCAGCCCCUGUCUGAAUCCGGUGAAUCUGCGGAUUCUACUGUAUAUCUC [C29U A45U U48A U51C A64G G70A],0.17
5,UAACAGGGGGCCACAGCAGAAGCGUUCAGGUCGCAGCCCCUGUAAGAUUCUGGUGAAUCUGCGAAUUCCGCUGCAUAUCUC [C29G C44A U69C U74C],0.33
6,UAACAGGGGGCCACAGCAGAAGCGUUCAUGUCGCCGCCACUGUCAGAUUCUGGUGACUCAGCGAAUUCUGCGGUAUAUCUC [C29U A35C C39A A57C U60A U72G],0.08
7,UAACAGGGGGCCACAGCAGAAGCGUUCAAGUCGCAGCCCCUGUCAGAUUCCGGUGAAUCUGCGAAUACUGCUGUAUAUCUC [C29A U51C U67A],0.18
8,UAACAGGGGGCCACAGCAGAAGCGUUCAGGUCGCAGCCCCUGUCAGUUCCUGGUGAAUCAGCGAAUUCUGCUGUAUACCUC [C29G A47U U49C U60A U78C],0.23
9,UAACAGGGGGCCACAGCAGAAGCGUUCAUGUCGCGGCCCUAGUCAGAUUCCGGAGGAUCUGCGAAUUCUGCUGUAUAUCUC [C29U A35G C40U U41A U51C U54A A56G],0.11
10,UAACAGGGGGCCACAGCAGAAGCGUUCAAGUCGCAGCCCCUGUCAGAAUCUGGUGGAUCUGCGAAUUCUGCUGUAUAUCUC [C29A U48A A56G],0.32
11,UAACAGGGGGCCACAGCAGAAGCGUUCAGGUCGCAGCCCCUGUCAGAUUCUGGUGAGUCUGCGAAUUCUGCUGUUUAUCUC [C29G A57G A75U],0.11
12,UAACAGGGGGCCACAGCAGAAGCGUUCAAGUCGCAGCCCCUGACAGAUUCUGGUGAGUCUGCGAAUUCUGCUGUAUAUCUC [C29A U43A A57G],0.22
13,UAACAGGGGGCCACAGCAGAAGCGUUCAUGUCGCAGCCCCUGUCAGGUUCAGGUGAAUCUGCGAAUUCUGCUGUAUAUCUC [C29U A47G U51A],0.39
14,UAACAGGGGGCCACAGCAGAAGCGUUCAUGUCGCGGCCCCUGCCAGAUUCUGGUGAAUCUGCGAGUUCCGCUGUAUAUCCC [C29U A35G U43C A65G U69C U80C],0.08
15,UAACAGGGGGCCACAGCAGAAGCGUUCAGGUCGCUGCCCCUGUCAGAUUCUGGUGUAUCUGCGAAUUCUGCUGUAUAUCUC [C29G A35U A56U],0.14
16,UAACAGGGGGCCACAGCAGAAGCGUUCAAGUCGCAGCCCCUGCCAGAUUCUGGUGAAUCUGCGAAUUCAGCUGUAUGCCUC [C29A U43C U69A A77G U78C],0.1
17,UAACAGGGGGCCACAGCAGAAGCGUUCAUGUCGCUGCCCCUGUCAGAUUCUGGUGAGUCUGCGAAUUCUGCUAUAUAUCUC [C29U A35U A57G G73A],0.15

row,Variant,self-cleavage
1,UAACAGGGGGCCACAGCAGAAGCGUUCAGGUCGCCGCCCCUGUCAGAUUGUGGAGAAACUGCGAAUUCUGCAGUAUAUCUC [C29G A35C C50G U54A U58A U72A],0.13
2,UAACAGGGGGCCACAGCAGAAGCGUUCAUGUCGCAGCCCCUGUCAGGUUCUGGUGAAUCUGCGAAUACUGCUGUAUAUCUC [C29U A47G U67A],0.28
3,UAACAGGGGGCCACAGCAGAAGCGUUCAGGUCGCAGCCCCAGUCAGAUUCAGGUGAAUCUGCGAAUUCUGCCGUAUAUCUC [C29G U41A U51A U72C],0.08
4,UAACAGGGGGCCACAGCAGAAGCGUUCAUGUCGCGGCCCCUGUCAGAUUCUGGUGAAUCUGCGGAUACUGCUGUAUAUCUC [C29U A35G A64G U67A],0.32
5,UAACAGGGGGCCACAGCAGAAGCGUUCAAGUCGCAGCCCCCGCCAGAUUCUGGUGAAACUGCGCAUUCUGCUGUAUAACUC [C29A U41C U43C U58A A64C U78A],0.13
6,UAACAGGGGGCCACAGCAGAAGCGUUCAUGUCGCAGCCCCUGUCCGACUCUGGUGAAUCUGCGAAUUCUGCAGUAUAUCUC [C29U A45C U48C U72A],0.1
7,UAACAGGGGGCCACAGCAGAAGCGUUCAGGUCGCAGCCCCUGUCAGAUUCUGGUGAAUCAGCGAAUUCUGCAGUAUAUCUC [C29G U60A U72A],0.1
8,UAACAGGGGGCCACAGCAGAAGCGUUCAAGUCGCAGCCCCUGUCAGAUUCUGGUGAAUCUGCGAAUUCAGCUGUAUAUCCC [C29A U69A U80C],0.12
9,UAACAGGGGGCCACAGCAGAAGCGUUCAGGUCGCAGCCCCCGUCAGACUCCGGUGAAUCUGCGGAUUCUGCAGUAUAUCUC [C29G U41C U48C U51C A64G U72A],0.08
10,UAACAGGGGGCCACAGCAGAAGCGUUCAUGUCGCAGCCCCUGUCUGAUUCCGGUGAAUCUGCGAAUUCUGCUGUAUAUCUC [C29U A45U U51C],0.24
11,UAACAGGGGGCCACAGCAGAAGCGUUCAGGCCGCAGCCCCCGUCAGGUUCCGGUGGAUCUGCGAGUUCUGCUGUAUAUCUC [C29G U31C U41C A47G U51C A56G A65G],0.42
12,UAACAGGGGGCCACAGCAGAAGCGUUCAGGUCGCAGCCCCUGUCAGAUUCUGGAGCAUCUGCGAAUUCUGCUGUAUAUCUC [C29G U54A A56C],0.1
13,UAACAGGGGGCCACAGCAGAAGCGUUCAGGUCGCAGCCCCUGUCAGAUUCUGGUGAAUCUGAGAGUUCUGCUGUAUAUCUC [C29G C62A A65G],0.34
14,UAACAGGGGGCCACAGCAGAAGCGUUCAGGUCGCGGCCCCCGUCAGAUUCUGGUGAAUCUGCGGAUUCUGCUGUAUACCUC [C29G A35G U41C A64G U78C],0.26
15,UAACAGGGGGCCACAGCAGAAGCGUUCAUGUCGCAGCCCCUGUCCGGUUCUGGCGAAUCAGCGAUUUCUGCUGUAUAUCUC [C29U A45C A47G U54C U60A A65U],0.18
16,UAACAGGGGGCCACAGCAGAAGCGUUCAUGUCGCAGCCCCUGUCAGGUUCUGGUGAAUCUGCGAAUUCUGCUGCGUAUCUC [C29U A47G U74C A75G],0.58
17,UAACAGGGGGCCACAGCAGAAGCGUUCAGGUCGCAGCCCCUGUCAGAUUCUGGUGAGUCUGCGAAUACUGCUGUAUAUCUC [C29G A57G U67A],0.14
